According to the supplement of paper PMC10369915:
The other results are listed elsewhere or left out. Cut-off read from the data, not from the text of the source: active = 3.2 or more and inactive = the rest. Most of these values are background signal.

Experiments:
Test in all cases: enrichment score (SH2-bound / input frequency) (ratio); bacterial display of known human phosphotyrosine sites (pTyr-Var adds point mutants) read by sequencing; higher = stronger binding; tyrosines were phosphorylated by kinases first
Conditions in all cases: peptide library: pTyr-Var
[1] = molecular target: SHP2 C-SH2 domain E139D
[2] = molecular target: SHP2 C-SH2 domain wild-type
[3] = molecular target: SHP2 N-SH2 domain L43F
[4] = molecular target: SHP2 N-SH2 domain T42A
[5] = molecular target: SHP2 N-SH2 domain T52S
[6] = molecular target: SHP2 N-SH2 domain wild-type
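Note: displayed peptides selected on beads carrying the immobilized SH2 domain, with library peptides lacking any tyrosine serving as negative controls.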

| Binder | enrichment score [1] | enrichment score [2] | enrichment score [3] | enrichment score [4] | enrichment score [5] | enrichment score [6] |
| --- | --- | --- | --- | --- | --- | --- |
| ISHVAYLVLGK [TRRAP_Y892_R893L] | inactive: 3.04 | active: 3.33 | inactive: 3.14 | active: 5.78 | inactive: 2.87 | inactive: 2.43 |
| FVTSMYNEILM [TRPV1_Y310] | inactive: 1.85 | inactive: 1.79 | inactive: 1.81 | inactive: 3.17 | inactive: 1.57 | inactive: 1.67 |
| PLDGEYFTLRI [TP53_Y327_Q331R] | inactive: 0.781 | inactive: 1.13 | inactive: 1.17 | inactive: 0.802 | inactive: 0.681 | inactive: 1.24 |
| RGGWAYVLHPT [TRMT61A_Y67_V66A] | inactive: 1.29 | inactive: 1.26 | inactive: 1.09 | inactive: 0.853 | inactive: 1.11 | inactive: 1.31 |
| RLDGEYFTLQI [TP53_Y327_P322R] | inactive: 0.809 | inactive: 1.05 | inactive: 0.718 | inactive: 0.693 | inactive: 0.743 | inactive: 0.887 |
| QPDFLYDHIQP [TRRAP_Y862] | inactive: 1.91 | inactive: 2.6 | inactive: 1.39 | inactive: 1.8 | inactive: 2.3 | inactive: 1.59 |
| PKSLFYLLLKP [TRPC6_Y775_L780P] | inactive: 2.68 | inactive: 2.75 | inactive: 2.37 | inactive: 2.52 | active: 3.22 | inactive: 2.34 |
| RQAQAYRGQRV [TSHR_Y706] | inactive: 0.232 | inactive: 0.252 | inactive: 0.245 | inactive: 0.197 | inactive: 0.171 | inactive: 0.373 |
| DELDKYSEVLK [TPM1_Y60_A63V] | inactive: 0.505 | inactive: 0.853 | inactive: 0.723 | inactive: 0.828 | inactive: 0.727 | inactive: 0.78 |
| DELDKYSEALK [TPM1_Y60] | inactive: 0.603 | inactive: 0.444 | inactive: 0.488 | inactive: 0.529 | inactive: 0.682 | inactive: 0.641 |
| PLDGEYFTHQI [TP53_Y327_L330H] | inactive: 0.766 | inactive: 0.827 | inactive: 0.765 | inactive: 0.707 | inactive: 0.672 | inactive: 0.974 |
| ISSLRYELLEE [TRPC6_Y896] | inactive: 1.03 | inactive: 0.879 | inactive: 0.924 | inactive: 0.906 | inactive: 0.903 | inactive: 1.25 |
| NNVEQYQAMVT [TPR_Y965_S960N] | inactive: 0.782 | inactive: 0.861 | inactive: 0.728 | inactive: 0.704 | inactive: 0.71 | inactive: 0.661 |
| RAMPVYKKAEH [TP63_Y231] | inactive: 0.193 | inactive: 0.587 | inactive: 0.366 | inactive: 0.37 | inactive: 0.647 | inactive: 0.446 |
| ISHVAYCVLGK [TRRAP_Y892_R893C] | inactive: 1.4 | inactive: 2.04 | inactive: 1.48 | inactive: 2.89 | inactive: 1.48 | inactive: 1.81 |
| PVDGEYFTLQI [TP53_Y327_L323V] | inactive: 0.614 | inactive: 0.99 | inactive: 0.836 | inactive: 0.742 | inactive: 0.522 | inactive: 1.16 |
| AQMAMYFWEMG [TRPM4_Y577] | active: 3.54 | inactive: 2.98 | inactive: 3.17 | inactive: 2.43 | inactive: 2.69 | inactive: 3.12 |
| ISHVAYRVLGK [TRRAP_Y892] | inactive: 0.7 | inactive: 0.56 | inactive: 0.671 | inactive: 0.57 | inactive: 0.675 | inactive: 0.71 |
| RQGQAYRGQRV [TSHR_Y706_A703G] | inactive: 0.252 | inactive: 0.207 | inactive: 0.256 | inactive: 0.289 | inactive: 0.37 | inactive: 0.491 |

| Binder | enrichment score [1] | enrichment score [2] | enrichment score [3] | enrichment score [4] | enrichment score [5] | enrichment score [6] |
| --- | --- | --- | --- | --- | --- | --- |
| EPTPGYEVSQR [TSC2_Y1788_G1791S] | inactive: 0.543 | inactive: 0.615 | inactive: 0.529 | inactive: 0.408 | inactive: 0.445 | inactive: 0.689 |
| SGLDSYVRSLP [TRAPPC1_Y133_R129G] | inactive: 0.784 | inactive: 0.523 | inactive: 0.598 | inactive: 0.537 | inactive: 0.587 | inactive: 0.637 |
| ARMTNCGLPRY [TSPAN12_Y138_Y138C] | inactive: 0.928 | inactive: 0.79 | inactive: 0.93 | inactive: 0.698 | inactive: 0.879 | inactive: 0.888 |
| LEDEVYAQKMK [TPM2_Y261] | inactive: 0.896 | inactive: 1.01 | inactive: 0.817 | inactive: 0.651 | inactive: 0.931 | inactive: 0.79 |
| QPTPGYEVGQR [TSC2_Y1788_E1783Q] | inactive: 0.537 | inactive: 0.469 | inactive: 0.608 | inactive: 0.388 | inactive: 0.7 | inactive: 0.689 |
| TSPALYRLDLD [TRIL_Y352_A347T] | inactive: 1.2 | inactive: 0.799 | inactive: 0.778 | inactive: 0.703 | inactive: 0.681 | inactive: 0.95 |
| EPTPGYEVGQR [TSC2_Y1788] | inactive: 0.448 | inactive: 0.435 | inactive: 0.527 | inactive: 0.386 | inactive: 0.466 | inactive: 0.498 |
| DTQNSYRCATS [TSC1_Y304_G305R] | inactive: 0.696 | inactive: 0.608 | inactive: 0.524 | inactive: 0.503 | inactive: 0.639 | inactive: 0.873 |
| FDSPFYRDSLP [TSC1_Y508] | inactive: 0.608 | inactive: 0.546 | inactive: 0.64 | inactive: 0.665 | inactive: 0.652 | inactive: 0.732 |
| PLDGEYFTPQI [TP53_Y327_L330P] | inactive: 0.741 | inactive: 0.794 | inactive: 0.781 | inactive: 0.605 | inactive: 0.991 | inactive: 0.852 |
| RAMPVYEKAEH [TP63_Y231_K232E] | inactive: 0.662 | inactive: 0.541 | inactive: 0.527 | inactive: 0.386 | inactive: 0.495 | inactive: 0.5 |
| LSEEKYELKEG [TREM1_Y29_T25S] | inactive: 0.901 | inactive: 0.911 | inactive: 0.752 | inactive: 0.686 | inactive: 0.693 | inactive: 0.944 |
| PLDGEYFILQI [TP53_Y327_T329I] | inactive: 0.941 | inactive: 1.34 | inactive: 0.876 | inactive: 0.792 | inactive: 0.711 | inactive: 1.61 |
| PLDGEYFSLQI [TP53_Y327_T329S] | inactive: 1.08 | inactive: 0.837 | inactive: 0.711 | inactive: 0.934 | inactive: 0.679 | inactive: 0.736 |
| WNGDKYAATTT [TRIM39_Y439] | inactive: 0.859 | inactive: 0.599 | inactive: 0.556 | inactive: 0.644 | inactive: 0.779 | inactive: 0.721 |
| PRNLIYFGEHP [TRPV6_Y201_C197R] | inactive: 0.944 | inactive: 0.745 | inactive: 0.723 | inactive: 0.925 | inactive: 0.839 | inactive: 0.608 |
| FDSPFYQDSLP [TSC1_Y508_R509Q] | inactive: 0.781 | inactive: 0.777 | inactive: 0.965 | inactive: 0.76 | inactive: 0.784 | inactive: 0.853 |
| FVSIVYNDSGE [TSC2_Y1650] | inactive: 1.4 | inactive: 1.32 | inactive: 1.41 | inactive: 1.29 | inactive: 1.94 | inactive: 1.56 |
